Laboratory results as given in PMC4336329 (PLoS ONE, 2015).
The whole screen tested about 310,000 compounds, of which about 14,000 (4.5%) showed an effect of 50% or more. The effect is printed as a negative number. Some of the results follow.

These molecules were tested against human ether-à-go-go-related gene (hERG) potassium channel (human, UniProt Q12809) (assay: primary screen, population patch clamp on CHO cells stably expressing hERG).
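Also: peak tail current of the secondary pulse compared with the same well before compound.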

human ether-à-go-go-related gene (hERG) potassium channel, sequence (Q12809 whole entry, looked up): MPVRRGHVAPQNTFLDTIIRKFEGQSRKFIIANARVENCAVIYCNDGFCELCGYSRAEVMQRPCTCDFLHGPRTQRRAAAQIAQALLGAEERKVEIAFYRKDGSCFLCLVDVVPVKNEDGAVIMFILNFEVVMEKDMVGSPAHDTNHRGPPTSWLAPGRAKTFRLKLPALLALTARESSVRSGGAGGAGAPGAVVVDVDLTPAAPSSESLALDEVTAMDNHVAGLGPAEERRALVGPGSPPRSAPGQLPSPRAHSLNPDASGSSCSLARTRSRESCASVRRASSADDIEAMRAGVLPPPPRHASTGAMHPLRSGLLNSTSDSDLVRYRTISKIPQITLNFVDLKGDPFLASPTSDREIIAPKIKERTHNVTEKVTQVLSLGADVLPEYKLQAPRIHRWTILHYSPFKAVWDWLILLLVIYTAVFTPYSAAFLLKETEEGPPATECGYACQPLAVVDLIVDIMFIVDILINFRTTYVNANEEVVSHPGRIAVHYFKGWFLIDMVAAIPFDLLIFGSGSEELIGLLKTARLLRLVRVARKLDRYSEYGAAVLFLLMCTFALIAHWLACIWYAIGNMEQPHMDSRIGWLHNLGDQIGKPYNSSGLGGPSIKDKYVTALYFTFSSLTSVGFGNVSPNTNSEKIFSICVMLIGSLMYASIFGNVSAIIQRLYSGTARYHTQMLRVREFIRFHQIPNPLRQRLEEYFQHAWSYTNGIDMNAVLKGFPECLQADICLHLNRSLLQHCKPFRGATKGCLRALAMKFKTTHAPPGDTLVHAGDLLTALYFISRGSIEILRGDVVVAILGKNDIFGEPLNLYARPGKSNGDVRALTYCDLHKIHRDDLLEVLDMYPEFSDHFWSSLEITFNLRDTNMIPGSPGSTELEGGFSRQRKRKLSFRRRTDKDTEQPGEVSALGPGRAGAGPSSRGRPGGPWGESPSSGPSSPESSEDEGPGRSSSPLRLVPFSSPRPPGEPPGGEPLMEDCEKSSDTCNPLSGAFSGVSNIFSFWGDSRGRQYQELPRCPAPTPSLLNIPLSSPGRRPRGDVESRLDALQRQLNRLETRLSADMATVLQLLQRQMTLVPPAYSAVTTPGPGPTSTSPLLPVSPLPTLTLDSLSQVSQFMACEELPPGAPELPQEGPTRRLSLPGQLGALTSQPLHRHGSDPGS

Row | Compound | hERG current change (%, negative = inhibition) at 10uM [%]
1 | Cc1cc(C)cc(NC(=O)COC(=O)c2cc(C)oc2C)c1 | 7.5
2 | Cc1ccc(NC(=O)C2CCN(c3ncnc4c3nc3n4CCCCC3)CC2)cc1Cl | 3.4
3 | COc1ccc(-n2c(C)cc(SC)c(C(C)=O)c2=S)cc1 | -10.9
4 | Br.CN(CC(O)C[NH+]1CCOCC1)S(=O)(=O)[O-] (stereo not shown) | 17
5 | Cc1nnc(SCC(=O)Nc2ccc(S(=O)(=O)N3CCCC3)cc2)n1N | 13
6 | COC(=O)c1cc(=O)c2cccc(OC)c2[nH]1 | -0.0736
7 | Cc1ccc(C(=O)NNC(=O)c2cccs2)cc1 | 14.1
8 | Cc1noc(C)c1C(=O)N(CC(=O)Nc1ccc(Cl)c(C(F)(F)F)c1)Cc1ccco1 | 2.01
9 | COc1ccc2oc(C(=O)OCC(=O)Nc3ccc(NC(C)=O)cc3)c(C)c2c1 | 19.6
10 | CCn1c(SCC(=O)Nc2nccs2)nnc1-c1ccc(S(=O)(=O)N2CCCCCC2)cc1 | -11.6
11 | O=C(Nc1ccc(Br)c2cccnc12)c1ccc(Cn2cc([N+](=O)[O-])cn2)o1 | -0.0567
12 | COc1cc(N/N=C/c2ccc(N(C)C)cc2)ncn1 | 12.9
13 | Cn1c(=O)[nH]c(=O)c2c1nc(N1CCCCC1)n2CCSc1nc2ccccc2o1 | 11.1
14 | Cc1cc(=O)n2ccsc2n1 | 3.28
15 | O=C1COc2ccc(S(=O)(=O)N3CCCCCC3)cc2N1 | 9.98
16 | COCc1nc2ccccc2n1Cc1ccccc1C | 1.2
17 | CC(=O)c1sc(NC(=O)c2cc(=O)c3ccccc3o2)nc1C | 10.1
18 | CN1CC(c2ccc(C#N)cc2)C2(COc3ccccc3C2=O)C12C(=O)Nc1ccccc12 (stereo not shown) | -37.1
19 | Cc1cccc(C)c1NS(=O)(=O)c1ccc(-c2cnc(C3CC3)o2)cc1 | 10.7
20 | COc1cc(/C=C2\C(=N)N3N=C(S(C)(=O)=O)SC3=NC2=O)cc(OC)c1OCCOc1ccccc1C | 23.4

Row | Compound | hERG current change (%, negative = inhibition) at 10uM [%]
21 | CCN(CC)S(=O)(=O)c1ccc(C)c(NC(=S)N2CCN(C/C=C/c3ccccc3)CC2)c1 | -2.74
22 | NCC(=O)Nc1ccc(Br)cc1 | 10.2
23 | Cc1nn(-c2ccccc2)c(N2CCCCC2)c1/C=N/NC(=O)c1ccncc1 | 7.3
24 | CC(=O)c1cc2c(cc1NC(=O)C1CC=CCC1C(=O)O)OCO2 (stereo not shown) | 8.02
25 | CC1=CC(C)C2C(=O)N(c3ccccc3)C(=O)C2C1 (stereo not shown) | 5.25
26 | COc1ccc2oc(=O)c(C(=O)O)cc2c1 | 4.91
27 | O=C(CCCCCn1c(=S)[nH]c2cc3c(cc2c1=O)OCO3)NCCc1ccccc1 | 15.1
28 | NC(=O)c1sc2nccc(Nc3ccccc3)c2c1N | -19
29 | CCCC1CC(C)(C(=O)Cn2[nH]c(=O)ccc2=O)OC1=O (stereo not shown) | -3.28
30 | O=C(CCCOc1ccccc1)NCCc1ccccc1 | -3.36
31 | COc1ccc(C(=O)/C(C#N)=N/Nc2ccccc2[N+](=O)[O-])cc1 | 10.5
32 | COc1ccc(Br)c(/C=N/NC(=O)COc2ccc(-c3ccccc3)cc2)c1 | 7.38
33 | C=CCn1c(SCC(=O)/C(C#N)=C(\C)N)nnc1C1CCCCC1 | -3.62
34 | O=c1c2ccsc2ncn1Cc1ccc(Cl)cc1 | -3.3
35 | O=C(CSc1nnc(COc2ccccc2)o1)N1CCN(c2ccccc2)CC1 | 3.61
36 | N#Cc1ccccc1CN1C(=O)c2ccccc2S1(=O)=O | 16
37 | Cc1ccc(CS(=O)(=O)CCC(=O)N2CCOCC2)cc1 | 12.6
38 | CCC(=O)NC(c1ccco1)c1cc(Cl)c2ccccc2c1O (stereo not shown) | 0.92
39 | Cc1cccc(C)c1NC(=O)CSCC(=O)c1ccc(O)c(O)c1 | 16
40 | O=C(Nc1ccc(S(=O)(=O)N2CCOCC2)cc1)c1ccccc1F | 6.32

Row | Compound | hERG current change (%, negative = inhibition) at 10uM [%]
41 | CSc1ccccc1C(=O)NC1CC2CCC1C2 (stereo not shown) | -4.16
42 | C=CCOc1ccc(C2=NOC(C(=O)Nc3ccc4c(c3)OCCO4)C2)cc1OC (stereo not shown) | 20.3
43 | CC1=NN(C(N)=S)C(=O)C1N=Nc1cccc(C)c1 (stereo not shown) | 6.22
44 | COCCCn1c(SCC(=O)n2c(C)c(C)c3ccccc32)nnc1-c1ccoc1C | -24.6
45 | O=S(=O)(NCc1cccs1)c1ccc(Br)s1 | 2.07
46 | Cc1noc(C)c1S(=O)(=O)N(CC(=O)NCc1ccc(Cl)cc1)c1ccc2c(c1)OCO2 | -19
47 | CN(C)S(=O)(=O)c1cccc(NC(=O)Cn2cnc3ccccc3c2=O)c1 | 8.28
48 | COc1ccc(S(=O)(=O)Cc2ccc(C(=O)N3CCN(Cc4ccccc4)CC3)o2)cc1 | -33.1
49 | Cn1cc(/C=C2\SC(=O)N(c3ccc(O)cc3)C2=O)c2ccccc21 | 1.68
50 | COC(=O)c1cc(OC)c(OC)cc1NC(=S)N1CCN(c2ccccn2)CC1 | -6.01
51 | O=C(CN1CC(c2ccccc2)CC1=O)Nc1cccc(F)c1 (stereo not shown) | 1.4
52 | Cn1cc(C(=O)N/N=C/c2ccc([N+](=O)[O-])cc2)c2ccccc21 | 1.98
53 | COc1ccccc1CNC(=O)COC(=O)CCN=C1NS(=O)(=O)c2ccccc21 | -4.7
54 | O=C(N/N=C/c1cccnc1)c1cc(-c2ccc(Cl)cc2)nc2ccccc12 | -1.5
55 | Cc1[nH]nc(-c2ccc(O)c(C)c2O)c1Oc1ccccc1 | -10
56 | CCN(CC)C(=O)COc1cccc2ccccc12 | 15.1
57 | O=C(OCn1nnc2ccccc2c1=O)C1CCCCC1 | 5.57
58 | CC(C)CCNC(=O)C1CCCN1C(=O)NC1CCCCC1 (stereo not shown) | 4.74
